The entries are a selection whose mix differs from that of the whole data set. Records with an inconclusive call do not appear. More than one record can exist for a structure, and the calls need not agree. Activity calls are given as the source filed them. The calls were made as follows, unless noted: active = hit-call score of the fitted dose curve at least 0.9, where 1 is the maximum; inactive = score below 0.9.
Assays:
[1] = target: human Peroxisome Proliferator-activated Receptor alpha (PPARa), PPARA (gene 5465) (UniProt Q07869); experiment: ATG_PPARa_TRANS: Attagene TRANS-FACTORIAL HepG2 Assay for human Peroxisome Proliferator-activated Receptor alpha (PPARa) (AID 2283001; active = hit-call score of the fitted dose curve at least 0.9, where 1 is the maximum)
Chain of UniProt Q07869 (Q07869 whole entry, looked up, the tested form may be a part): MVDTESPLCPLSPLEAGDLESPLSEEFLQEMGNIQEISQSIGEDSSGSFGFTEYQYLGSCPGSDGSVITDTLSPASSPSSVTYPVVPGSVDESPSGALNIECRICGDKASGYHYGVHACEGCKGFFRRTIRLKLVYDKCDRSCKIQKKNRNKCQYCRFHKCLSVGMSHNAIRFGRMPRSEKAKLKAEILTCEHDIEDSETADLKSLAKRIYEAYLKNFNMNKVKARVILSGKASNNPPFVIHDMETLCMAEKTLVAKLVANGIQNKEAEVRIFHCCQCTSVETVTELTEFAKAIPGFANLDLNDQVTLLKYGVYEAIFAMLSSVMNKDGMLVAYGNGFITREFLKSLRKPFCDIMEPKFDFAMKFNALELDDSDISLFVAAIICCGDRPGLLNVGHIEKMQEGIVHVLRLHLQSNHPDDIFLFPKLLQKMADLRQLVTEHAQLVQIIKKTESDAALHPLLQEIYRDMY
Outline: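 Reporter transcripts quantified by RT-PCR plus capillary electrophoresis after 24 h treatment, fitted upward relative to DMSO. Cells: human HepG2 transiently carrying multiple GAL4-UAS reporter units driven by NR-Gal4 chimeras.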

[2] = target: human Thyroid Receptor alpha (THRa1), THRA (gene 7067) (UniProt P10827); experiment: ATG_THRa1_TRANS: Attagene TRANS-FACTORIAL HepG2 Assay for human Thyroid Receptor alpha (THRa1) (AID 2283014; active = hit-call score of the fitted dose curve at least 0.9, where 1 is the maximum)
Chain of UniProt P10827 (P10827 whole entry, looked up, the tested form may be a part): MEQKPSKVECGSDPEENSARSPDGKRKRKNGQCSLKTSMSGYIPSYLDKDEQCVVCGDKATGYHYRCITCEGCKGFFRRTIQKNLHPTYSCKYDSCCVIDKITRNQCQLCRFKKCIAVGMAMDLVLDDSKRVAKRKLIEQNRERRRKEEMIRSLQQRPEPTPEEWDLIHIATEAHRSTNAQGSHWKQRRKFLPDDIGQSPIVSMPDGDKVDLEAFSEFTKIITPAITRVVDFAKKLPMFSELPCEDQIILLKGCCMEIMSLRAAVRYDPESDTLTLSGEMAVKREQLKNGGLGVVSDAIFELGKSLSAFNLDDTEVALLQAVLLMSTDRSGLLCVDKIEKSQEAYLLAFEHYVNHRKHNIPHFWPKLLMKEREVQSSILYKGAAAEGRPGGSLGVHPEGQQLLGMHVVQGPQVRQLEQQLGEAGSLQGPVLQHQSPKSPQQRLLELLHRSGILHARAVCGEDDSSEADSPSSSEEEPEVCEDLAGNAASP
Outline: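 Transcripts from GAL4-UAS-driven reporters, measured after 24 h compound exposure by RT-PCR plus capillary electrophoresis of 6-FAM-labeled fragments, were fitted for gain of signal relative to DMSO. Cells: transiently transfected HepG2 expressing NR-Gal4 chimeras.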

[3] = read-out: E-selectin (Homo sapiens) (UniProt P16581); experiment: BSK_3C_Eselectin: BioMAP Diversity Plus: 3C Assay for Eselectin Biomarker Activity (AID 2283015); settings: actives raise or lower the signal; primary human endothelial cells (HUVEC)
Chain of UniProt P16581 (P16581 whole entry, looked up): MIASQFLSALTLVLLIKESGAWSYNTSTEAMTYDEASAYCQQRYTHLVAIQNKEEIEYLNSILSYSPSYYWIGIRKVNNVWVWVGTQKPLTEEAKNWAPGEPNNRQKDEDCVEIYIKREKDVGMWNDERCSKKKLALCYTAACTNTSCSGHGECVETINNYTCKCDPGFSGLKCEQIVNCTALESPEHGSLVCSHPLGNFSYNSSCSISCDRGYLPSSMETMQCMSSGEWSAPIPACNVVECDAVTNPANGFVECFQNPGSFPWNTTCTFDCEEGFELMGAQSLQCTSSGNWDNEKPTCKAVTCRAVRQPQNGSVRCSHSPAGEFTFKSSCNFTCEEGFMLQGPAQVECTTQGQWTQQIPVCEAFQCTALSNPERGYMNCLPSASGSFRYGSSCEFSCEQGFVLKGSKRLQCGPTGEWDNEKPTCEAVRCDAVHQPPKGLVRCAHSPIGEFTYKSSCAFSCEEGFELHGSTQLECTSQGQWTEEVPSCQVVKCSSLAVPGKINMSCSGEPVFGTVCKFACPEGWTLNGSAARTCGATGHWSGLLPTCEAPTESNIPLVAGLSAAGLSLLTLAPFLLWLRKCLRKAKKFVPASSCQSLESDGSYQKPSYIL
Outline: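 E-selectin ELISA readout, fitted bidirectionally relative to DMSO, taken 24 h post-dosing in HUVEC cultures of the 3C system. Overt cytotoxicity tracked with sulforhodamine B staining of parallel wells.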

[4] = read-out: Interleukin-1 alpha (IL1a), IL1A (gene 3552); experiment: BSK_BE3C_IL1a: BioMAP Diversity Plus: BE3C Assay for Interleukin-1 alpha (IL1a) Biomarker Activity (AID 2283016); settings: actives raise or lower the signal; primary human bronchial epithelial cells
Outline: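 IL-1a measured by ELISA after 24 h treatment of human primary bronchial epithelial cells, with gain or loss of signal fitted versus DMSO. Parallel cultures stained with SRB gauge overt cytotoxicity.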

[5] = BSK_4H_SRB: Viability Assessment in the BioMAP Diversity Plus: 4H Assay (AID 2283027); settings: primary human endothelial cells (HUVEC);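 also: cells exposed to compound for 24 h before staining; curves fitted both ways versus DMSO so AC50 may be loss or gain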
Outline: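 Cytotoxicity read-out in primary human endothelial cells: after 24 h compound exposure, cells were TCA-fixed (10%), stained with 0.1% SRB and absorbance taken at 560 nm. Values fitted in both directions relative to DMSO.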

[6] = read-out: Vascular endothelial growth factor receptor 2 (Homo sapiens) (UniProt P35968); experiment: BSK_4H_VEGFRII: BioMAP Diversity Plus: 4H Assay for Vascular endothelial growth factor receptor 2 (VEGFR2) Biomarker Activity (AID 2283031); settings: actives raise or lower the signal; primary human endothelial cells (HUVEC);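 also: cell-surface VEGFR2 protein level quantified by ELISA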
Outline: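 Measured by ELISA after 24 h of compound treatment: VEGFR2 on primary human umbilical vein endothelial cells, fitted in both directions relative to DMSO. Parallel cultures received SRB staining (560 nm) for overt cytotoxicity.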

[7] = BSK_hDFCGF_SRB: Viability Assessment in the BioMAP Diversity Plus: hDFCGF Assay (AID 2283061); settings: primary human foreskin fibroblasts;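 also: cells exposed to compound for 24 h before the read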
Outline: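 Viability was read as total protein: after 10% TCA fixation, wells were stained with 0.1% sulforhodamine B and read at 560 nm. Primary human foreskin fibroblasts were dosed for 24 h, with bidirectional fitting versus DMSO.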

[8] = read-out: Monokine induced gamma interferon (MIG), CXCL9 (gene 4283); experiment: BSK_hDFCGF_MIG: BioMAP Diversity Plus: hDFCGF Assay for Monokine induced gamma interferon (MIG) Biomarker Activity (AID 2283063); settings: actives raise or lower the signal; primary human foreskin fibroblasts
Outline: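 Human primary foreskin fibroblasts in the hDFCGF system, exposed to test chemical for 24 h; MIG measured by ELISA. Bidirectional curve fitting against DMSO negative control as activity baseline.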

[9] = read-out: Plasminogen activator inhibitor-1 (PAI1), SERPINE1 (gene 5054); experiment: BSK_hDFCGF_PAI1: BioMAP Diversity Plus: hDFCGF Assay for Plasminogen activator inhibitor-1 (PAI1) Biomarker Activity (AID 2283066); settings: actives raise or lower the signal; primary human foreskin fibroblasts
Outline: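 PAI-1 levels in human dermal foreskin fibroblasts were quantified by ELISA 24 h after dosing, with gain or loss analysed against DMSO. Overt cytotoxicity was checked by sulforhodamine B total-protein staining in parallel cultures.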

[10] = BSK_KF3CT_SRB: Viability Assessment in the BioMAP Diversity Plus: KF3CT Assay (AID 2283069); settings: primary human keratinocytes with fibroblasts
Outline: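 Cytotoxicity was gauged by SRB staining (0.1% SRB, 10% TCA fixation, 560 nm) of parallel cultures at 24 h. The cells were primary human skin keratinocytes co-cultured with fibroblasts, and activity was fitted in both directions against DMSO.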

[11] = read-out: TIMP metallopeptidase inhibitor 2 (TIMP2), TIMP2 (gene 7077); experiment: BSK_KF3CT_TIMP2: BioMAP Diversity Plus: KF3CT Assay for TIMP metallopeptidase inhibitor 2 (TIMP2) Biomarker Activity (AID 2283071); settings: actives raise or lower the signal; primary human keratinocytes with fibroblasts
Outline: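 TIMP-2 measured by ELISA at 24 h in human keratinocyte/fibroblast primary co-cultures exposed to chemicals. Both increases and decreases were fitted against DMSO. Parallel cultures were stained with SRB for total protein as an overt-cytotoxicity check.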

[12] = read-out: Interleukin-1 alpha (IL1a), IL1A (gene 3552); experiment: BSK_LPS_IL1a: BioMAP Diversity Plus: LPS Assay for Interleukin-1 alpha (IL1a) Biomarker Activity (AID 2283080); settings: actives raise or lower the signal; primary human HUVEC with PBMC
Outline: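 Readout is IL-1a level by ELISA, 24 h post-dose, fitted as gain or loss relative to DMSO. System: LPS-activated human primary co-culture of vascular endothelium and peripheral blood mononuclear cells, with parallel SRB total-protein cytotoxicity.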

[13] = read-out: Tissue Factor, F3 (gene 2152); experiment: BSK_LPS_TissueFactor: BioMAP Diversity Plus: LPS Assay for Tissue Factor Biomarker Activity (AID 2283084); settings: actives raise or lower the signal; primary human HUVEC with PBMC
Outline: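 Compound was added to an endothelial cell/PBMC co-culture, and after 24 h tissue factor (CD142) was read by ELISA. Gain or loss of signal was fitted against a DMSO baseline, and parallel SRB staining (560 nm) tracked overt cytotoxicity.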

CD69, CD69 (gene 969) = experiment: BSK_SAg_CD69: BioMAP Diversity Plus: SAg Assay for CD69 Biomarker Activity (AID 2283089); settings: actives raise or lower the signal; primary human HUVEC with PBMC;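 also: cell surface CD69 protein quantified by ELISA with fluorescence detection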
Outline: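 ELISA, fluorescence read-out: CD69 on human umbilical vein endothelial cell + PBMC co-culture, 24 h post-dosing. Gain or loss of signal fitted bidirectionally against DMSO baseline.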

**Q.** Which results are given for `Oc1cc(Cl)ccc1Oc1ccc(Cl)cc1Cl`?
**A.** outcome [1]: inactive; outcome [2]: inactive; AC50 [3]: active: 15.7 µM; AC50 [4]: active: 33.8 µM; AC50 [5]: active: 14 µM; AC50 [6]: active: 5.24 µM; AC50 [7]: active: 10.6 µM; AC50 [8]: active: 11.7 µM; AC50 [9]: active: 11.9 µM; AC50 [10]: active: 10.5 µM; AC50 [11]: active: 28.4 µM; AC50 [12]: active: 13.3 µM; AC50 [13]: active: 15 µM; AC50 (CD69, CD69 (gene 969)): active: 14.8 µM
